Drawing on paper PMC10726135, this text covers binding signal (log2 normalized intensity) for 73 sequences.

This is one part of the list. At the low end of the ranking the order means little. The protein was read in a cell extract, so binding may be indirect.

The target in this assay is T1, HNF4alpha2 (COS-7 nuclear extract) (UniProt P41235).
T1 sequence: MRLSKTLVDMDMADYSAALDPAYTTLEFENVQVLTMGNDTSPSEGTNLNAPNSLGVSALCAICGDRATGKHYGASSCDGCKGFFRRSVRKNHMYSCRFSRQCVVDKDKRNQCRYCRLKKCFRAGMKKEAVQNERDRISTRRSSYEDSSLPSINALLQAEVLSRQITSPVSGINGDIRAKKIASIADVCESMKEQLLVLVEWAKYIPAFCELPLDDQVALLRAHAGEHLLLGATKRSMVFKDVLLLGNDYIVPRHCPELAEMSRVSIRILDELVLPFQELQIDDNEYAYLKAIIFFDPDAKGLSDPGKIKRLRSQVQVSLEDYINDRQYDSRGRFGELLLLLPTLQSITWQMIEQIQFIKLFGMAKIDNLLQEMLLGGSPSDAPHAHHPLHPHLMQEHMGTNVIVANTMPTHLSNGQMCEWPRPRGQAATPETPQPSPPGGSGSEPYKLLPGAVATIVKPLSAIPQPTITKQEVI
The assay can be described thus: protein-binding microarray. As to conditions: COS-7 nuclear extract on double-stranded Agilent 4x180k PBM; binding buffer, salt, pH and temperature not given; high values mean tight binding; double strand, one strand shown; sequences stand for … in …GCCTAGGGAGATTAGAGTATCGGTCGA
In the case of GGCCGTATCAGAAGAACTGCACTGTATCTT, the binding signal (log2 normalized intensity) amounted to 0.466.
To AGCGATCATGGGTGACCCGTTAAGAATGAG belongs 0.437.
In the case of GGGGGTAGGTGGAGTGAGGGAGGGGGGCTG, the binding signal (log2 normalized intensity) was -1.09.
In the case of AAAGCCCTAGCTGACTGCGTCAGGCAGTTG it was -1.3; in that of GGTCACGTGCCGCTGCGGGTCACGTGCCGC, -0.00572; in that of TTATCTATACAGTTGTGGGTATGTCTGTAG, 1.97.
Take CCTCAGAGATGTTTAGTGAGCTGTCTAATT: the binding signal (log2 normalized intensity) came out at 0.518.
In the case of ATCATTTCTACAGGGTCAAGCAAACAAATG it was 1.32; in that of TGCCCATCTGGTGGTGGTTCTTGTTTCATT, 1.73; in that of AAGCTCTGAAAGCTTCAAAGGACAGGCTGA, -1.12.
Take AGGTCAGAGGACTTCCAAAGCCCCTTTCCA: the binding signal (log2 normalized intensity) stood at 0.462.
To GGATAAGTCTGTCTTGCTGTTTTTCCAGTT belongs 1.83; to AAATGCCTTCAGGGGCATTTGAGTACATGC, 0.926; to AAGTTCCACATCAAGCACATTCCAGAACCA, -0.922.
To CTCCTGGTTGGGGCCTCCCTCCGTGGGGCT belongs -1.18; to AGTTTCTTCACTGACGAAACTCACATACTG, -1.18; to TACTATGCAATAACCAGGGAGTGGCAGCAT, -1.08.
On to CACCTTTTGGCTGTAGAAAGACTAAAGTTC, for which the binding signal (log2 normalized intensity) was determined as 2.19.
To CTTTAGCTCAGCGGTTACTTCGAGTACATT belongs 0.818; to GAACCATTTGTGAGGATGGGCAGTCCCTAT, -0.968.
To GATCTCCCCACATTCCAACACAGGGTCAAT belongs 3.03; to GCTGTGTGACTCACCTTTGCTCTGATCTTT, 3.17.
In the case of CAGTTTGGCTTCTGACCTTTGGCATTGTGT it was 5.81; in that of CCAAATCCCTGCCCACATCCATTTTCTATC, 1.11; in that of TCAATGTCCCCTTAGGAATAGTATCAGGCA, 1.22.
As for ATCTGCTGCCCTTCCCTCCACTATTGTCCT, the binding signal (log2 normalized intensity) came to 2.8.
In the case of AATGGACCCAAGCGGCCATTTACTGACTAA it was -0.855.
In the case of TGAGAGGTGCTGCATGGGCTGAGCCCAGCA it was -1.23; in that of AGGACCATGTTCTCCTAAAGTGACTAGAGA, -1.12; in that of AACAGGGCTCCTGTTCAGCATAGTCCTGCC, -1.1.
In the case of CATGAGAAACATCCACATGTGGGTCCAAAG it was 2.45.
On to CCGCCTCTTGGCCTCCCCCTTCTGAGTCTC, for which the binding signal (log2 normalized intensity) is 2.69.
In the case of TGGATCGCTTGGCTCAGGCCGGTTGGCCAG it was -1.15; in that of GAAACGGGTTCAAGCTTGATCCAGGATCCT, -1.02.
In the case of TGCGGCTCTTCTGATCGTGAGAAGAGGACT it was -0.118; in that of CTCTCTTTGTGAAATGGGACCCAACTTTTG, 1.3.
To GCTTAATCTCTGCTCATAATGCCAGGCAGG belongs -0.432.
Turning to GGTCAATGTGCACATTCGAAGTTTTGCTCC, the binding signal (log2 normalized intensity) was 1.37.
For GACAGAAGGGAGAGTCCAAGATACCACTGA, the binding signal (log2 normalized intensity) was -1.15.
With AGAAATGTTATCTCAGTAGACTAACGTATG, the binding signal (log2 normalized intensity) amounted to 0.476.
In the case of GCATCGTGGGTATTTGGGGAGTTCTTTCTG it was 1.1; in that of AATGATCTGGTCAGACTGAGAGAGCAGGGC, -1.05.
In the case of GCCTCTAGCCCAATATTTGCTTACCAAACT, the binding signal (log2 normalized intensity) was -0.117.
In the case of GCCTGGCGTGGATTCCGAGCGTTGGTGTCT it was 0.858.
To CAGGTCTTTCTGGAGATAACAGTGTAAGGA belongs 1.28; to TGGTTTTATGGTGTCTTATCTTCCTCTGGC, 1.96; to ATTGACCCTTAGGCCAAGGCTTACTGGCGC, -1.03.
In the case of TCCAGCCTCCAGCTACTCACTCTTCCCAAA it was -1.12; in that of GTGAGGGAGAAGTTTTATGGCAGGGTCGGA, 1.77; in that of CAGTGTGGCAGGTGAAATAGCTGAACTATT, 0.604.
For the sequence CCCCGCGCCGCGTCCCTTCCCCCGGCGCAG, the binding signal (log2 normalized intensity) stood at 4.24.
As for GATTAAACAAACAAGTTTTATTGGGGGGTC, the binding signal (log2 normalized intensity) amounted to 1.38.
In the case of ATCTGAGGTGGTCCAGGGCCCTTACCATCA it was -1.11.
For CGTGCGGTCGGGCGCGCGGGCCGGGAGGGG, the binding signal (log2 normalized intensity) was -1.15.
To ATAGAACACTTGTACATACTTTTGGGGTAT belongs 0.796.
In the case of GAGGGTGGTGGGTGAAGGATGGAATGCTGA it was -1.16; in that of TTCAACCTCTTTCTCTTTGATGTAAATTTT, 1.36; in that of TGAAGAAAGATCACACAAATGGATCTTTCT, -1.1.
In the case of CAAATCATTACTATCTGCTGGGGGCTGGGC it was 0.13; in that of AAACATCCTGCCTAACCACCTGACCACAAC, -1.01.
As for ACTTGTGGTATGTTTGGATTGGGCAATGAC, the binding signal (log2 normalized intensity) was found to be 1.87.
In the case of TCTGATGTACCCAGCACTGTCAGCAGGGGG it was -1.08.
In the case of CATAGACCCTGTTGGTTTCTGGGATTTGTA it was 0.967.
TAGTCTCCTATCAAGAAAATAGAAGTGCTA: the binding signal (log2 normalized intensity) was -1.17.
To ATTCCCTCCAGCAGGGGATGCCCTTTGACC belongs 8.91; to TGTCGCTATCTTATCTGGGCCAGGTATTTG, 1.1.
Turning to CTTGTGGCTGGGTGATCTGGGAAACAGGCT, the binding signal (log2 normalized intensity) is -1.11.
In the case of GGACTTTGGCCCTCAGCCCAATGTGGTAGG it was 5.47; in that of CACCATTCCTGGCAGCCAGCTGGTTTGCCT, -0.903.
To TTTTTTCTCTCCCCTTTTAATACAAGTATT belongs 1.63; to TAGGTTTGTGAGTCCAAAGGTCAGCCGGGG, 7.74; to AAGGAGAAGGCTCCCAAGGTATCCTCCTAG, -1.08.
In the case of TCCCTTCCCGGGGAGTCCTGGGCGTTGCTC it was -0.443.
